Laboratory results reported in the supplement of paper PMC8728848.
This is one part of the list.

How the values were obtained:
Test in all cases: glycan array binding signal (z-score within array); higher = stronger binding
Conditions in all cases: glycan notation: IUPAC condensed, linker removed
[1] = target: Neu5Ac(a2-3)Gal(b1-3)[Fuc(a1-4)]GlcNAc
Method in brief: (§1)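 Glycan array binding is given as a within-array Z-score, which can be read as non-binding when negative. The arrays, 3228 of them, came from the Consortium for Functional Glycomics database and were retained only where the protein sequence was available. Z-scores were averaged across arrays of the same protein sequence at different concentrations or buffers and across linkers.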

[2] = target: Neu5Ac(a2-3)Gal(b1-3)[Fuc(a1-4)]GlcNAc(b1-3)Gal(b1-3)[Fuc(a1-4)]GlcNAc
Method in brief: as §1

[3] = target: Neu5Ac(a2-3)Gal(b1-3)[Fuc(a1-4)]GlcNAc(b1-3)Gal(b1-4)[Fuc(a1-3)]GlcNAc
Method in brief: as §1

[4] = target: Neu5Ac(a2-3)Gal(b1-3)[GlcNAc(b1-6)]GalNAc
Method in brief: as §1

[5] = target: Neu5Ac(a2-3)Gal(b1-3)[Neu5Ac(a2-6)]GalNAc
Method in brief: as §1

[6] = target: Neu5Ac(a2-3)Gal(b1-3)[Neu5Ac(a2-6)]GlcNAc(b1-3)[Fuc(a1-3)[Gal(b1-4)]GlcNAc(b1-6)]Gal(b1-4)Glc
Method in brief: as §1

[7] = target: Neu5Ac(a2-3)Gal(b1-3)]Neu5Ac(a2-3)Gal(b1-4)]GlcNAc
Method in brief: as §1

Neu5Ac(a2-3)Gal(b1-4)Glc = target: Neu5Ac(a2-3)Gal(b1-4)Glc
Method in brief: as §1

[8] = target: Neu5Ac(a2-3)Gal(b1-4)GlcNAc
Method in brief: as §1

[9] = target: Neu5Ac(a2-3)Gal(b1-4)GlcNAc(b1-2)Man
Method in brief: as §1

[10] = target: Neu5Ac(a2-3)Gal(b1-4)GlcNAc(b1-2)Man(a1-3)[GlcNAc(b1-4)][Neu5Ac(a2-3)Gal(b1-4)GlcNAc(b1-2)Man(a1-6)]Man(b1-4)GlcNAc(b1-4)GlcNAc
Method in brief: as §1

[11] = target: Neu5Ac(a2-3)Gal(b1-4)GlcNAc(b1-2)Man(a1-3)[Neu5Ac(a2-3)Gal(b1-4)GlcNAc(b1-2)Man(a1-6)]Man(b1-4)GlcNAc(b1-4)GlcNAc
Method in brief: as §1

[12] = target: Neu5Ac(a2-3)Gal(b1-4)GlcNAc(b1-2)Man(a1-3)[Neu5Ac(a2-3)Gal(b1-4)GlcNAc(b1-2)Man(a1-6)]Man(b1-4)GlcNAc(b1-4)[Fuc(a1-6)]GlcNAc
Method in brief: as §1

[13] = target: Neu5Ac(a2-3)Gal(b1-4)GlcNAc(b1-2)Man(a1-3)[Neu5Ac(a2-6)Gal(b1-4)GlcNAc(b1-2)Man(a1-6)]Man(b1-4)GlcNAc(b1-4)GlcNAc
Method in brief: as §1

[14] = target: Neu5Ac(a2-3)Gal(b1-4)GlcNAc(b1-2)[Neu5Ac(a2-3)Gal(b1-4)GlcNAc(b1-4)]Man(a1-3)[GlcNAc(b1-4)][Neu5Ac(a2-3)Gal(b1-4)GlcNAc(b1-2)[Neu5Ac(a2-3)Gal(b1-4)GlcNAc(b1-6)]Man(a1-6)]Man(b1-4)GlcNAc(b1-4)GlcNAc
Method in brief: as §1

[15] = target: Neu5Ac(a2-3)Gal(b1-4)GlcNAc(b1-2)[Neu5Ac(a2-3)Gal(b1-4)GlcNAc(b1-4)]Man(a1-3)[GlcNAc(b1-4)][Neu5Ac(a2-3)Gal(b1-4)GlcNAc(b1-4)Man(a1-6)]Man(b1-4)GlcNAc(b1-4)GlcNAc
Method in brief: as §1

[16] = target: Neu5Ac(a2-3)Gal(b1-4)GlcNAc(b1-2)[Neu5Ac(a2-3)Gal(b1-4)GlcNAc(b1-6)]Man(a1-6)[Neu5Ac(a2-3)Gal(b1-4)GlcNAc(b1-2)Man(a1-3)]Man(b1-4)GlcNAc(b1-4)GlcNAc
Method in brief: as §1

[17] = target: Neu5Ac(a2-3)Gal(b1-4)GlcNAc(b1-2)[Neu5Ac(a2-3)Gal(b1-4)GlcNAc(b1-6)]Man(a1-6)[Neu5Ac(a2-3)Gal(b1-4)GlcNAc(b1-2)Man(a1-3)][GlcNAc(b1-4)]Man(b1-4)GlcNAc(b1-4)GlcNAc
Method in brief: as §1

[18] = target: Neu5Ac(a2-3)Gal(b1-4)GlcNAc(b1-3)Gal
Method in brief: as §1

[19] = target: Neu5Ac(a2-3)Gal(b1-4)GlcNAc(b1-3)Gal(b1-3)GlcNAc
Method in brief: as §1

[20] = target: Neu5Ac(a2-3)Gal(b1-4)GlcNAc(b1-3)Gal(b1-4)GlcNAc
Method in brief: as §1

[21] = target: Neu5Ac(a2-3)Gal(b1-4)GlcNAc(b1-3)Gal(b1-4)GlcNAc(b1-2)Man(a1-3)[Neu5Ac(a2-3)Gal(b1-4)GlcNAc(b1-3)Gal(b1-4)GlcNAc(b1-2)Man(a1-6)]Man(b1-4)GlcNAc(b1-4)GlcNAc
Method in brief: as §1

[22] = target: Neu5Ac(a2-3)Gal(b1-4)GlcNAc(b1-3)Gal(b1-4)GlcNAc(b1-3)Gal(b1-4)GlcNAc
Method in brief: as §1

[23] = target: Neu5Ac(a2-3)Gal(b1-4)GlcNAc(b1-3)Gal(b1-4)GlcNAc(b1-3)Gal(b1-4)GlcNAc(b1-2)Man(a1-3)[Neu5Ac(a2-3)Gal(b1-4)GlcNAc(b1-3)Gal(b1-4)GlcNAc(b1-3)Gal(b1-4)GlcNAc(b1-2)Man(a1-6)]GalNAc
Method in brief: as §1

[24] = target: Neu5Ac(a2-3)Gal(b1-4)GlcNAc(b1-3)Gal(b1-4)GlcNAc(b1-3)GalNAc
Method in brief: as §1

[25] = target: Neu5Ac(a2-3)Gal(b1-4)GlcNAc(b1-3)Gal(b1-4)GlcNAc(b1-3)[Neu5Ac(a2-3)Gal(b1-4)GlcNAc(b1-3)Gal(b1-4)GlcNAc(b1-6)]GalNAc
Method in brief: as §1

[26] = target: Neu5Ac(a2-3)Gal(b1-4)GlcNAc(b1-3)Gal(b1-4)GlcNAc(b1-6)[Gal(b1-3)]GalNAc
Method in brief: as §1

[27] = target: Neu5Ac(a2-3)Gal(b1-4)GlcNAc(b1-3)Gal(b1-4)[Fuc(a1-3)]GlcNAc
Method in brief: as §1

[28] = target: Neu5Ac(a2-3)Gal(b1-4)GlcNAc(b1-3)GalNAc
Method in brief: as §1

[29] = target: Neu5Ac(a2-3)Gal(b1-4)GlcNAc(b1-3)[Neu5Ac(a2-3)Gal(b1-4)GlcNAc(b1-6)]GalNAc
Method in brief: as §1

B1: mCC1-Hexahis-Precomplexed (Mus musculus), P31809 (protein)
chain: MELASAHLHKGQVPWGGLLLTASLLASWSPATTAEVTIEAVPPQVAEDNNVLLLVHNLPLALGAFAWYKGNTTAIDKEIARFVPNSNMNFTGQAYSGREIIYSNGSLLFQMITMKDMGVYTLDMTDENYRRTQATVRFHVHPILLKPNITSNNSNPVEGDDSVSLTCDSYTDPDNINYLWSRNGESLSEGDRLKLSEGNRTLTLLNVTRNDTGPYVCETRNPVSVNRSDPFSLNIIYGPDTPIISPSDIYLHPGSNLNLSCHAASNPPAQYFWLINEKPHASSQELFIPNITTNNSGTYTCFVNNSVTGLSRTTVKNITVLEPVTQPFLQVTNTTVKELDSVTLTCLSNDIGANIQWLFNSQSLQLTERMTLSQNNSILRIDPIKREDAGEYQCEISNPVSVRRSNSIKLDIIFDPTQGGLSDGHHHHHH
glycan array binding signal (z-score) [1]: -0.285
glycan array binding signal (z-score) [2]: -0.219
glycan array binding signal (z-score) [3]: -0.183
glycan array binding signal (z-score) [4]: -0.253
glycan array binding signal (z-score) [5]: -0.167
glycan array binding signal (z-score) [6]: -0.19
glycan array binding signal (z-score) [7]: -0.25
glycan array binding signal (z-score) (Neu5Ac(a2-3)Gal(b1-4)Glc): 0.134
glycan array binding signal (z-score) [8]: -0.23
glycan array binding signal (z-score) [9]: -0.03
glycan array binding signal (z-score) [10]: 0.032
glycan array binding signal (z-score) [11]: -0.174
glycan array binding signal (z-score) [12]: -0.191
glycan array binding signal (z-score) [13]: -0.184
glycan array binding signal (z-score) [14]: -0.244
glycan array binding signal (z-score) [15]: -0.283
glycan array binding signal (z-score) [16]: -0.111
glycan array binding signal (z-score) [17]: -0.045
glycan array binding signal (z-score) [18]: -0.226
glycan array binding signal (z-score) [19]: -0.178
glycan array binding signal (z-score) [20]: -0.236
glycan array binding signal (z-score) [21]: 7.65
glycan array binding signal (z-score) [22]: -0.237
glycan array binding signal (z-score) [23]: 7.6
glycan array binding signal (z-score) [24]: -0.119
glycan array binding signal (z-score) [25]: 1.78
glycan array binding signal (z-score) [26]: 3.21
glycan array binding signal (z-score) [27]: -0.232
glycan array binding signal (z-score) [28]: -0.117
glycan array binding signal (z-score) [29]: -0.309
